# Test results: publication PMC4336329 (PLoS ONE, 2015)
# About 2,200 (0.71%) of roughly 310,000 compounds showed an effect of 50% or more. Effects have a minus sign here. Some of the results follow.
# Biological target: human ether-à-go-go-related gene (hERG) potassium channel (human, UniProt Q12809)
# Test: primary screen, population patch clamp on CHO cells stably expressing hERG
# human ether-à-go-go-related gene (hERG) potassium channel, sequence (Q12809 whole entry, looked up): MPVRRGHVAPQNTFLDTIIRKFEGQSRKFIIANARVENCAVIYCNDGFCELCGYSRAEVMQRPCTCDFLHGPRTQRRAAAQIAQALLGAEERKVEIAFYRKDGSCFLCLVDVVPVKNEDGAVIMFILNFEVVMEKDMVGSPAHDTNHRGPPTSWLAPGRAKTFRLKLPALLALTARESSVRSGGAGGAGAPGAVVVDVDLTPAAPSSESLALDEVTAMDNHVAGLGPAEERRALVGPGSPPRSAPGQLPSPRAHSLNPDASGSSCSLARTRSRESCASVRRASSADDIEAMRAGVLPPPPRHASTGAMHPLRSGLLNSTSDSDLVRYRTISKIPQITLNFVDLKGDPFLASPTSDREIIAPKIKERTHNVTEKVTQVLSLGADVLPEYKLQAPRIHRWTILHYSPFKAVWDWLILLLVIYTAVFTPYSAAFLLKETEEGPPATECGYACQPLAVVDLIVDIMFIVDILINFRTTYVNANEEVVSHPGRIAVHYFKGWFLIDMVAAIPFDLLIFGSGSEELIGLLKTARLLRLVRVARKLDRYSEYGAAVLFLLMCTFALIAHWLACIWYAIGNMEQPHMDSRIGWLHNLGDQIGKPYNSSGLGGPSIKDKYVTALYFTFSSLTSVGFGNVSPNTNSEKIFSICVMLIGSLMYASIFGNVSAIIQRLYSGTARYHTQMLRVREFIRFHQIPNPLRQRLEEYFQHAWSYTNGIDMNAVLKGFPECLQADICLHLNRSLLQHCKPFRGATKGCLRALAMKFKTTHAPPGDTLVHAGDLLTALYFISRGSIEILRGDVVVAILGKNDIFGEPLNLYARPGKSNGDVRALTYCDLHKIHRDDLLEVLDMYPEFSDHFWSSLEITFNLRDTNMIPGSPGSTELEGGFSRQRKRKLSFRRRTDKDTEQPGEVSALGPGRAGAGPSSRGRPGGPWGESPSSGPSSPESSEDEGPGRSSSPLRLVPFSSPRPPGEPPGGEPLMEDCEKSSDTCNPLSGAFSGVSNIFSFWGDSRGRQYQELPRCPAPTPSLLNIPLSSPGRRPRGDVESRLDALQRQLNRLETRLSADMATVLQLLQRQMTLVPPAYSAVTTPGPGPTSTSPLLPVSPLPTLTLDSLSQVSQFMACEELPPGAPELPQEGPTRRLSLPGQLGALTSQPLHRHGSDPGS
row,Compound,"hERG current change (%, negative = inhibition) at 1uM [%]"
1,CCOc1ccccc1NC(=O)CC1Nc2ccccc2NC1=O (stereo not shown),6.06
2,c1cnc(SCCOc2cccc3ccccc23)nc1,-4.6
3,O=C(NCC1CCCO1)c1onc(CSc2ccc(F)cc2)c1C(=O)O (stereo not shown),14.1
4,CC(C)CC(C(=O)OCC(=O)Nc1cccc(Cl)c1)N1C(=O)C2CC=CCC2C1=O (stereo not shown),13.3
5,O=C(N/N=C/C(Cl)=C/c1ccc([N+](=O)[O-])cc1)C(=O)Nc1ccc(C(=O)O)cc1,9.4
6,Cc1ccc(-c2cnc3cc(C)nn3c2)cc1,12.6
7,CCC(CC)CN1CCN=C1Nc1ccccc1,5.25
8,Cc1ccc(S(=O)(=O)Nc2nc3ccccc3nc2NCc2ccc3c(c2)OCO3)cc1C,2.39
9,Cc1ccc(C(=O)N/C(=C\c2ccc(-c3cccc([N+](=O)[O-])c3)o2)C(=O)NCCCN(C)C)cc1,-27.5
10,CCOc1ccc(S(=O)(=O)NCCC(=O)NCC2(N3CCCCC3)CCCCC2)cc1,-0.565
11,N=C1C(c2nc3ccccc3[nH]2)=C(O)CN1C1CCCCC1,8.46
12,COc1ccc(S(=O)(=O)N2CCCC2CNC(=O)C(=O)NC2CC2)cc1 (stereo not shown),12.6
13,CC(=O)N1CCSc2ccc(S(=O)(=O)NCc3ccccc3)cc21,4.56
14,O=C(CCn1cnc2ccccc21)N/N=C/C=C/c1ccccc1,4.35
15,CC(=O)c1cccc(NC(=O)c2ccc3c(Cl)c4c(nc3c2)CCCC4)c1,2.68
16,Brc1ccccc1OCCNCc1ccccc1.O=C(O)C(=O)O,8.28
17,Cc1nn(C)c(C(=O)N/N=C/c2ccc(C(F)(F)F)cc2)c1[N+](=O)[O-],11.7
18,O=C(NC1CCCCC1)n1c(=O)oc2cc(S(=O)(=O)N3CCCCC3)ccc21,5.37
19,CC(=O)N1CCN(C(=O)C(Cc2ccccc2)NC(=O)c2ccccc2)CC1 (stereo not shown),16.3
20,CCN(CC)c1ccc(NC(=O)c2ccc(Br)o2)c(C)c1,17.8
21,O=C(c1ccc2ccccc2c1)N1CCN(S(=O)(=O)/C=C/c2ccccc2)CC1,-3.48
22,CC(C)c1ccc(/C=C2\Oc3c(ccc(O)c3CN3CCN(C)CC3)C2=O)cc1,4.28

row,Compound,"hERG current change (%, negative = inhibition) at 1uM [%]"
1,CCN(CC)S(=O)(=O)c1ccc(C(=O)NC2=NCCS2)cc1,11.3
2,Cc1ccc(S(=O)(=O)NC(Cc2ccccc2)C(=O)O)cc1 (stereo not shown),-1.77
3,O=C(NC(=S)Nc1ccc2c(c1)OCCO2)c1ccc(F)cc1Cl,10.7
4,C/C(NC1CCCC1)=C(/C#N)C(N)=O,5.83
5,CCOCCCn1c(SC(C)C(=O)NCC2CCCO2)nc2sc(C)c(C)c2c1=O (stereo not shown),-0.916
6,CC1=C2C(CCS2(=O)=O)CC2(C1)C(=O)OC(C)(C)OC2=O (stereo not shown),4.93
7,CC(=O)N1CCN(CC(=O)Nc2cccc(S(=O)(=O)N3CCCCCC3)c2)CC1,7.58
8,CCOc1cc(/C=N/O)ccc1OCc1ccc([N+](=O)[O-])cc1,-6.93
9,O=C(Cn1cnc2c(cnn2-c2ccc(F)cc2)c1=O)NCC1CCCO1 (stereo not shown),2.68
10,COc1cc(CCC(=O)OCC(=O)Nc2c(F)cccc2F)cc(OC)c1OC,5.03
11,COc1ccc(N2C(=O)C3CCCN3C2c2ccccc2)cc1Cl (stereo not shown),7.76
12,C/C(=N\Nc1nc(C(C)(C)C)cs1)c1ccccc1,15.1
13,COc1ccc(CCNC(=O)Cn2c(=O)oc3cc(Cl)ccc32)cc1OC,10.3
14,Cc1ccc(C)c(-n2c(C)nc3ccccc3c2=O)c1,13.2
15,COc1ccc(Br)cc1/C=C/C(=O)Nc1ccc(C)cc1,8.12
16,COC(=O)NC1c2ccccc2Oc2ccccc21,11.4
17,c1ccc(C2=Nn3c(nnc3-c3ccccn3)SC2)cc1,10.4
18,O=C(Cn1c(=O)cnc2ccccc21)Nc1ccccc1N1CCOCC1,9.06
19,Cc1c(OCC(=O)C(C)(C)C)ccc2c(-c3ccccc3)cc(=O)oc12,12.4
20,CNC(=O)CN1C(=O)NC2(CCc3ccccc3C2)C1=O (stereo not shown),16.7
21,COc1ccc(OC)c(S(=O)(=O)NCCOC23CC4CC(CC(C4)C2)C3)c1,-4.41
22,Cc1c(C(=O)NCC2CCCO2)sc2nc(-c3ccccc3)cn12 (stereo not shown),-15.9

row,Compound,"hERG current change (%, negative = inhibition) at 1uM [%]"
1,COc1cccc(CN=c2c([N+](=O)[O-])nn(-c3ccccc3C)n2O)c1,11.1
2,Cc1ccc(NC(=O)COC(=O)CN2C(=O)c3ccccc3C2=O)cc1S(=O)(=O)N(C)C,10.4
3,COc1ccccc1C(=O)Nc1ccc2[nH]ncc2c1,8.7
4,COc1ccc(C(c2sc3nc(C)nn3c2O)N2CC(C)OC(C)C2)cc1OC (stereo not shown),6.83
5,COC(=O)c1ccc(NC(=O)C2C3CCC(C3)C2C(=O)O)cc1 (stereo not shown),3.27
6,CCOc1cccc(CNCc2ccncc2)c1,4.19
7,Cc1cc(C)n(C(=O)CNC(=O)COc2ccccc2)n1,11.4
8,CCn1c(-c2cc(-c3ccc(C)cc3)nc3ccccc23)n[nH]c1=S,9.45
9,O=C(c1ccc(CS(=O)(=O)c2c(Cl)cccc2Cl)o1)N1CCN(c2ccccn2)CC1,-4.65
10,COc1ccccc1N1CCN(S(=O)(=O)c2c(C)[nH]c(=O)[nH]c2=O)CC1,8.93
11,Cc1ccc(C)c(OCCCN2CCCC2)c1.O=C(O)C(=O)O,-20
12,CCOC(=O)c1oc2ccccc2c1NC(=O)Cc1cccs1,15.3
13,CCC(C)c1ccc(S(=O)(=O)N2CC(=O)Nc3ccccc32)cc1 (stereo not shown),11.8
14,Cn1/c(=N\NC(=O)c2ccccc2Cl)sc2ccccc21,6.15
15,O=C(NCc1cccnc1)NC(=O)c1ccc(Cl)cc1,15.5
16,CCCn1c(C(C)NC(C)=O)nc2ccccc21 (stereo not shown),12.3
17,CS(=O)(=O)N1Cc2ccccc2CC1C(=O)OCC(=O)Nc1ccc2ccccc2c1 (stereo not shown),7.46
18,COc1ccc(C2C([N+](=O)[O-])=C(C)N(C)C(=O)N2C)cc1OC (stereo not shown),11.7
19,CCc1ccc(NC(=O)CSc2nc3c(c(=O)n(C)c(=O)n3C)n2C)cc1,2.79
20,CCCCCOC(=O)C1[C@H]2C(=O)N(CCCOC)C[C@]23C=C[C@H]1O3 (stereo partly shown),2.39
21,O=C(CNC(=O)OCc1ccccc1)NCC(=O)Nc1ccc(Br)cc1C(=O)c1ccccc1,10.8
22,CC12CCC(C(=O)NC3CCCC3)(CC1=O)C2(C)C (stereo not shown),7.77

row,Compound,"hERG current change (%, negative = inhibition) at 1uM [%]"
1,O=C1C2C3c4ccccc4C(c4ccccc43)C2C(=O)N1Cc1ccco1 (stereo not shown),4.25
2,Cn1c(=O)n(C)c2cc([N+](=O)[O-])c(N3CCN(S(=O)(=O)c4ccccc4)CC3)cc21,3.45
3,C[C@H](NC(=O)c1ccccc1)C(=O)OCC(=O)c1c[nH]c2ccccc12,-12.7
4,O=C(c1[nH]ncc1-c1ccc(Cl)cc1)C1CO1 (stereo not shown),7.69
5,COc1ccc(S(=O)(=O)N2CCN(Cc3c[nH]c4ccccc34)CC2)cc1,0.158
6,CCOC(=O)C/C(C)=N/NC(=O)CN(c1ccc(Br)cc1)S(=O)(=O)c1ccccc1,5.62
7,CCS(=O)(=O)n1nc(-c2ccc(OC)cc2)nc1SC,15.7
8,CC1CCN(CC(=O)Nc2ccc(S(=O)(=O)N3CCC(C)CC3)cc2)CC1.Cl,10.8
9,CCCN(CC(=O)Nc1ccccc1C)C(=O)c1ccc(S(=O)(=O)N2CCCC2)cc1,6.35
10,CCN(CC)C(=O)CSc1nnc(COc2ccc(OC)cc2)n1N,11.9
11,O=C(Nc1ccccc1)c1ccc(OC(=O)c2ccccc2)cc1,14.9
12,O=C(CCC(=O)N(CC(=O)NC1CCCC1)c1ccccc1F)Nc1nccs1,1.53
13,Cc1ccc(C2CC(=O)C=C(NCC(C)C)C2)cc1 (stereo not shown),13.5
14,NS(=O)(=O)c1ccc(CCNC(=O)CNC(=O)c2ccc(Br)o2)cc1,10.3
15,Cc1ccc(C2c3[nH]c4ccccc4c3C[C@H]3C(=O)N(c4ccccc4C(=O)N4CCC[C@H]4C(=O)O)C(=O)N23)cc1 (stereo partly shown),13.3
16,CCOC(=O)[C@H]1[C@H]2COc3ccc(OC)cc3[C@@H]2N2C(=O)CN(Cc3ccc(C)cc3)C(=O)[C@@]12C,6.79
17,O=C(O)C1C(c2ccccc2)C(C(=O)Oc2ccccc2)C1c1ccccc1 (stereo not shown),8.27
18,CC(OC(=O)c1ccc(-n2cnnn2)cc1)C(=O)NCc1ccccc1 (stereo not shown),-3.66
19,COc1ccccc1NC(=O)/C=C/C(=O)O,10.5
20,Cc1cccc(OCc2nnc(SCC(=O)N3CCN(C(=O)c4ccco4)CC3)n2C)c1C,-10.8
21,O=C(CSc1ncn(-c2ccccc2)n1)Nc1ccc(Br)cn1,-6.14
22,CCc1nc(Nc2ccc3nccnc3c2)c2oc3ccccc3c2n1.Cl,11
